Data from article PMC6139040 (Clinical cancer research : an official journal of the …, 2018).
Like-named read-outs stand apart in the source and are kept apart here.

Legend:
[1] = tested on: K8484 subcutaneous tumors; assay: K8484 subcutaneous tumor model, bolus versus continuous infusion; type: in vivo, nude mice; conditions: 1 μM/24 hr by pump versus 1 μM bolus daily (legend: 1 mg/kg), p = 0.35
[2] = tested on: KPC-p53^R270H pancreatic tumors; assay: KPC efficacy / survival study, p53^R270H; type: in vivo, KPC mice; conditions: 5 mg/kg IP daily
[3] = Pharmacokinetics in mouse plasma; type: in vivo, male BALB/c mice; conditions: for Cmax: read-out: C0/Cmax
[4] = Acute toxicity / maximum tolerated dose; type: in vivo, mice
TOV112D parental cells = assay: Cell growth inhibition / viability, TOV112D parental cells; type: cell-based; conditions: cell growth inhibition assay, TOV112D

**Q.** For `C/C(=N\NC(=S)N1CCC1)c1ccccn1` [ZMC1], which “tumor growth, continuous intravenous pump versus intravenous bolus daily” value [1] is on record?
**A.** no significant difference

**Q.** And the “mice with tumor regressions by ultrasound” value [2]?
**A.** 2/8

**Q.** And the median survival ([2]; vehicle 14 days)?
**A.** 10 days

**Q.** And the AUCinf ([3]; i.v. 2 mg/kg, mouse plasma)?
**A.** 0.405 µM·h

**Q.** What about the AUClast ([3]; i.v. 2 mg/kg, mouse plasma) of the same compound?
**A.** 0.385 µM·h

**Q.** What about the CL ([3]; i.v. 2 mg/kg, mouse plasma) of the same compound?
**A.** 351 mL/min/kg

**Q.** And the T1/2 ([3]; i.v. 2 mg/kg, mouse plasma)?
**A.** 35.4 min

**Q.** What about the Vss ([3]; i.v. 2 mg/kg, mouse plasma) of the same compound?
**A.** 9.8 L/kg

**Q.** And the “%F” value ([3]; p.o. 10 mg/kg versus i.v. 2 mg/kg, one value printed on both lines)?
**A.** 79%

**Q.** What about the AUClast ([3]; p.o. 10 mg/kg, mouse plasma) of the same compound?
**A.** 1.527 µM·h

**Q.** What about the Tmax ([3]; p.o. 10 mg/kg, mouse plasma) of the same compound?
**A.** 15 min

**Q.** What about the Cmax ([3]; i.v. 2 mg/kg, mouse plasma) of the same compound?
**A.** 2.43 µM

**Q.** What about the Cmax ([3]; p.o. 10 mg/kg, mouse plasma) of the same compound?
**A.** 4.56 µM

**Q.** What about the observed toxicity ([4]; 10 mg/kg) of the same compound?
**A.** seizure-like activity and hypothermia

**Q.** For [Zn(ZMC1)2] [Zn-1], which cell kill (TOV112D parental cells) is on record?
**A.** ~100%

**Q.** And the well tolerated dose ([4]; acute single dose exposure)?
**A.** up to 15 mg/kg

**Q.** What about the weight loss ([4]; acute single dose up to 15 mg/kg) of the same compound?
**A.** without significant weight loss
